Measurements taken from PubChem BioAssay AID1508623 (National Center for Advancing Translational Sciences (NCATS), 2021).
Screen size: about 48,000 compounds; about 450 (0.94%) were called active. About 19% were inconclusive and are not listed. Calls follow the shape of the dose curve; as a rule, active = well fitted inhibition curve with a large enough effect; inconclusive = small, poorly fitted or top-dose-only effect; inactive = no such curve, though single readings can be large or run the other way. This is one part of the list.

test: Primary qHTS for Identification of Small Molecule Inhibitors of Huntingtin Promoter Activity; conditions: HEK293 HTT promoter firefly luciferase reporter (activity 0% = vehicle and -100% = no light), 24 h; series mostly up to 57.5 µM; activity change, negative = inhibition: at the top concentration; also: nearly all actives have a fitted effect of over 50% in size
In short: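 Firefly luciferase readout (Dual-Glo, 10 min RT) after 24 h, 37 °C compound exposure (final up to 57.5 uM) of HEK293 reporter cells cultured 24 h beforehand; PTC124 at 50 uM final as control inhibitor; activity scaled vehicle 0%, zero RLU -100%.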

Activity change, negative = inhibition, inactive:
Cc1ccc(C)c(N2CCN(C(=O)CCn3c(=O)[nH]c4ccccc4c3=O)CC2)c1 -27.8%
Cc1ccc(C)c(NC(=O)CSc2ncc3c(n2)-c2cc(Cl)ccc2N(Cc2ccccc2F)S3(=O)=O)c1 -12%
CC1(C)CC(=O)c2cc(-c3nc(-c4ccc(Cl)cc4)cs3)c(=O)n(-c3ccc(F)cc3)c2C1 -13.2%
CC(CNC1CCCCC1)OC(=O)c1ccccc1 (stereo not given) -6.05%
COc1ccc(-c2oc3ncn4nc(-c5ccccc5Cl)nc4c3c2-c2ccc(OC)cc2)cc1 59.3% [at 11.5 µM]
Cc1cc(Cl)ccc1NC(=O)CCn1nc(C)c2c(C)n(-c3ccccc3)nc2c1=O -15.4%
Cc1ccc(CNC(=O)CSc2nc3n[nH]c(C)c3c(=N)n2-c2cccc(C)c2)cc1 -26.8%
CCOc1ccc(NC(=O)Cn2cc(S(=O)(=O)N3CCN(c4ccccc4F)CC3)c3ccccc3c2=O)cc1 -2.33%
COc1ccc(-c2noc(-c3ccc(N4CCC(C)CC4)c([N+](=O)[O-])c3)n2)cc1OC -7.56%
COc1ccc(N(CC(=O)N2CCN(c3ccc(F)cc3)CC2)S(=O)(=O)c2c(C)n[nH]c2C)cc1 -16.1%
CC(C)(C)c1ccc(C(=O)NC(Cc2c[nH]c3ccccc23)C(=O)OCC(=O)c2ccc(Cl)cc2)cc1 (stereo not given) -21%
Cc1ccc(CNC(=O)c2cccc(-n3cnc4cccnc43)c2)cc1 -20.8%
COc1cccc(C(=O)Nc2c3c(nn2-c2ccc(Cl)cc2)CS(=O)(=O)C3)c1 -11.4%
CCc1ccc(NC(=O)CCNS(=O)(=O)c2ccc3c(c2)CCCC(=O)N3)cc1 -15.3%
OC(C#CCN1CCCC1)(c1ccccc1)c1ccccc1 -2.35%
COC(=O)c1ccccc1NC(=O)c1cc2c(-c3ccc(OC)c(OC)c3)nn(C)c2s1 7.71%
C=CCC(CC=C)(CNC(=O)C(=O)Nc1ccc(C(=O)OCC)cc1)c1ccccc1 -17.1%
Cc1ccc(-c2nc3ccccn3c2Nc2ccc3c(c2)OCO3)o1 9.46%
COc1ccc(-c2nn(-c3cccc([N+](=O)[O-])c3)c3c2cnc2cc4c(cc23)OCO4)cc1 -27.2%
CCCN(C(=O)c1cc2c(s1)-c1c(C)cccc1OC2)c1ccc(OCC)cc1 -5.01%
CC(C)c1ccc(Nc2nc3c(S(=O)(=O)c4ccc(Br)cc4)nnn3c3ccsc23)cc1 -17%
CCSc1nnnn1-c1cccc(C(=O)O)c1 -1.37%
CCOC(=O)c1cc(-c2ccc(C)cc2)n(CC(=O)NC2CCCCCC2)c1C -9.52%
Cc1cc2nc(-c3cccc(NC(=O)CSc4ccc(Cl)cc4)c3)oc2cc1C 70.8%
Cc1cccc(-c2c3c(=O)n(C)c(=O)n(C)c3c3cnc4ccccc4n23)c1 -6.21% [at 11.5 µM]
Cc1c(NC(=O)Nc2ccc(C#N)cc2)c(=O)n(-c2ccccc2)n1C -17.8%
CCC(=O)Nc1sc2c(c1C(=O)Nc1cccc(C)c1)CCCC2 -29.2%
COc1ccccc1Nc1nn2c(=O)c3ccc(C(=O)NC(C)c4ccccc4)cc3nc2s1 (stereo not given) -15.1%
Cc1ccc(NC(=O)Cn2cc(S(=O)(=O)c3ccccc3)c(=O)c3cc4c(cc32)OCO4)cc1 -27.7%
Cc1cccc(C(=O)Nc2ccc(OCc3cc(=O)n4c5c(sc4n3)CCCC5)cc2)c1 -20.3%
CCCOC(=O)c1ccc(O)cc1 36% [at 116 µM]
Cc1cc(C)c(NC(=O)Cn2nnc(-c3nc(-c4ccccc4)no3)c2N)c(C)c1 -8.83%
Cc1cc(C)c2c(n1)SCCN2C(=O)Nc1ccc(C(=O)Nc2ccc(C(C)C)cc2)cc1 -42.7%
CCN(CC)c1ccc2cc(-c3nc(-c4cc(OC)c(OC)c(OC)c4)no3)c(=O)oc2c1 2.91%
COC(=O)c1ccccc1NC(=O)Cn1c(=O)n(CCCC(=O)NCc2ccccc2OC)c(=O)c2ccccc21 -5.48%
Cc1ccc(C)c(NC(=O)C(c2ccccc2)N2Cc3ccccc3C2=O)c1 (stereo not given) -27.8%
CC(=O)c1ccc(NC(=O)c2nc3nc(C)cc(C(F)F)n3n2)cc1 -12.6%
CCOc1ccc(-n2nc(CO)c(C(=O)NCc3cccc(OC)c3)n2)cc1 5.47%
Cc1cc(C)cc(-n2ccn(CC(=O)Nc3ccccc3F)c(=O)c2=O)c1 -2.63%
COc1cc2cc(CNc3ccccc3)c(=O)n(CC(=O)Nc3cc(C)cc(C)c3)c2cc1OC -18.1%
O=C(CCC1N=C2c3ccccc3N=C(SCc3ccc(F)cc3)N2C1=O)NC1CCCCC1 (stereo not given) -11%
Cc1ccc(-c2cc(C(F)(F)F)nn2-c2ccc(S(N)(=O)=O)cc2)cc1
COc1ccccc1NC(=O)C1CCN(c2cnccn2)CC1 -7.38%
CSc1ncc(C(=O)Nc2cc(Cl)ccc2C)c(-c2ccccc2)n1 -11%
Cc1cn2c(=O)cc(COc3ccccc3NC(=O)c3ccc(Cl)cc3)nc2s1 -6.85%
CCOC(=O)c1ccc(NC(=O)CSc2nc3c([nH]c4ccccc43)c(=O)n2C)cc1 -22.5%
Cc1ccccc1-c1noc(-c2cc(-c3ccc(F)cc3)n[nH]2)n1 23.9%
Cc1cc(C)cc(NC(=O)C2CCN(S(=O)(=O)c3ccc4c(c3)oc(=O)n4C)CC2)c1 -12%
CCCCc1nc2ccccc2n1CC(=O)N(COCC)c1c(C)cccc1CC -16.7%
CC(C)c1ccc(Nc2c(-c3ccco3)nc3ccccn23)cc1 -1.96%
COc1cc(NC(=O)c2ccc(-n3cnc4cccnc43)cc2)cc(OC)c1 -12.8%
COc1ccc(/C=C/C(=O)Nc2ccc3nc(N4CCCCC4)cc(C)c3c2)cc1OC -26.9%
O=C(Nc1ccc(NC(=O)c2ccc(Br)cc2)c(Cl)c1)c1ccc(Br)cc1 -16.1%
COc1ccccc1-c1nnc(C2CCN(S(=O)(=O)c3ccccc3)CC2)o1 -15.7%
COc1ccc(C(=O)Nc2nc3ccc(S(=O)(=O)N4CCCC4)cc3s2)cc1 -9.66%
COc1cccc2cc(-c3nnc(-c4ccc(Cl)cc4)o3)c(=O)oc12 21.5%
CCCCCn1c(=O)[nH]c2cc(C(=O)Nc3ccc(OC)c(OC)c3)ccc2c1=O -6.61%
COc1cccc(-c2nc(CS(=O)(=O)CC(=O)NCCCN3CCN(C)CC3)c(C)o2)c1 19.3%
Cc1cccc(Cn2c(SCc3ccc(C(=O)NCCc4ccccc4)cc3)nc3cccnc32)c1 -25.7%
CC(=O)Nc1ccc(S(=O)(=O)N2CCN(c3ccccc3)CC2)cc1 -26.9%
